These are yes or no findings as the source states them, for the method shown. For part of these data: Binding seen in cells or lysates may run through a third protein. Some binding calls cover weakened binding; strength is not graded here. Where a sequence is shown, tags or fusion partners need not be part of it.
T1: GFP-MmsF fusion protein (Magnetospirillum gryphiswaldense MSR-1) (UniProt A4U547)
T1 sequence: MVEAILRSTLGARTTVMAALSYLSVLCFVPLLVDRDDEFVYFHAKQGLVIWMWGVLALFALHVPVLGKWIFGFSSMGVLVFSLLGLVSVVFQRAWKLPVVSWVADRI

T2: GFP-MamF fusion protein (Magnetospirillum gryphiswaldense MSR-1) (UniProt Q6NE74)
T2 sequence: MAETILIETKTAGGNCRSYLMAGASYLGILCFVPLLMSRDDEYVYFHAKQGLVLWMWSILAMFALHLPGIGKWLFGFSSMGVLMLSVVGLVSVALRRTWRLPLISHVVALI

T3: MamF, bacterial two-hybrid fusion (Magnetospirillum gryphiswaldense MSR-1) (UniProt Q6NE74)
T3 sequence: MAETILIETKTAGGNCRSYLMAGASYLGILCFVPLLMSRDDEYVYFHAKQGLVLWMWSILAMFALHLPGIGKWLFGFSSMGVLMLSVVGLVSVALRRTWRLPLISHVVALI

T4: MmsF, bacterial two-hybrid fusion (Magnetospirillum gryphiswaldense MSR-1) (UniProt A4U547)
T4 sequence: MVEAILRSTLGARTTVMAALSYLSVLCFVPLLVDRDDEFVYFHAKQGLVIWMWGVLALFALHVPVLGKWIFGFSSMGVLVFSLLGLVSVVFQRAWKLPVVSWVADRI


Experiments:
[1] = target: T1, GFP-MmsF fusion protein (Magnetospirillum gryphiswaldense MSR-1); assay: co-IP; isolated magnetosomes solubilized with 0.5% Triton X-100 (10 mM HEPES, 1 mM EDTA, 50 mM NaCl, pH 7.4), diluted to 0.1% Triton X-100; GFP-Trap agarose, 1 h at 4 °C; Western blot with GFP and MamJ antibodies
[2] = target: T2, GFP-MamF fusion protein (Magnetospirillum gryphiswaldense MSR-1); assay: as above
[3] = target: T3, MamF, bacterial two-hybrid fusion (Magnetospirillum gryphiswaldense MSR-1); assay: two-hybrid; adenylate cyclase-based bacterial two-hybrid (BACTH), T18 and T25 fusions co-transformed into E. coli BTH101; spotted on M63 maltose/X-Gal/IPTG agar, 28 °C, one day; only homogeneous intense blue counted as positive
[4] = target: T4, MmsF, bacterial two-hybrid fusion (Magnetospirillum gryphiswaldense MSR-1); assay: as above

binding [1] | binding [2] | binding [3] | binding [4] | Binder
binds weakly | no binding |  |  | MamJ (magnetosome membrane adaptor protein) (protein, UniProt V6F519 1-466) MAKNRRDRGTDLPGDGDQKISTGPEIVSVTVHPSPNLAAAAKPVQGDIWASLLESSPWSANQGGLVETAQPPSAPIRSQDPVPVADLVNRWSQPIWRTAPLAGNAESSEEGVVAPSLTQSDSVLAVSDLVIDVQPETDAEVEVSIEPEPALVEPVIEIEAEAAEVEPEPAPVADLVNRWAQPIWRTAPLAGNAESSEEGVVAPSLTQSDSVLAVSDLVIDVQPEANAEVEVSIEPEPALVEPVIEIEAEAAEVEPEPAPVEPVIEIEAEAAEVEPEPAPVEPVIEIEAEAAEVEPEPAPVEPAIEIEAIRVELEPVLIDEVVELVTEFEYSQAESVASADLIANPAPAESSRLAELLDEAAAIAAPAVAVAVEATRQPNKITASVKKRAPVQEVPVEDLLGGIFGVAGSAVRGVFTIGGGFVDGVVKGGRLVGSNVVAGTRRLAQTIEVSCGSCSSPKCDAEDKNK
 |  | no binding | no binding | MamG (protein, UniProt Q6NE75 1-84) MIKGIAGVGGTALGVGGGVAAPPVSAAAVGSTLLAGKGVCLGLGLGLGAWGPVLLGVAGLACAASLCDYLKNRKAQAEASAEPA
 |  | no binding | no binding | Mms6 (protein, UniProt Q6NE76 1-136) MGEMEREGATAKVGAGKVGAGKVGAAKAGAAPAAAQGAGTKVVAAQGAGTKVVAAQGAGAKAAAVGVGKVGAGAKAVGGTIWSGKGLALGLGMGLGAWGPLILGVVGAGAVYAYMKSRDIEAAQSDEEVELRDALS

Reference: publication PMC11628618
